Experimental data taken from article PMC12820563.
Some of the results follow. The list includes weakly bound sequences.

Target: T1, MBP-FoxP3dN (UniProt Q99JB6)
T1 sequence: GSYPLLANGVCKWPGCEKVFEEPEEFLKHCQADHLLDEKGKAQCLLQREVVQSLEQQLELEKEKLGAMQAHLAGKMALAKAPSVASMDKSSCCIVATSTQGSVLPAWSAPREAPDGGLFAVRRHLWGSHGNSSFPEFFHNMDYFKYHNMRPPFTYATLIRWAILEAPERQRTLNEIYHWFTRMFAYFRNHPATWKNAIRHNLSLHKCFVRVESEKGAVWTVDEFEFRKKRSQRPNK
Experiment: PD-seq (MBP pull-down with sequencing)
Details: 20 mM Tris-HCl pH 7.5, 100 mM NaCl, 1.5 mM MgCl2, 0.4 uM protein, 0.1 uM dsDNA library, 30 min, room temperature, amylose pull-down; high values mean tight binding; double strand, one strand shown

Sequence	binding signal (RPM ratio (pull-down/input))
GATGATTGTTCTCCCAGCTGATGAATTTTGTTTGTCGAGTAAACAAATTTTCCTAATCTTTCTGTTCAAGCGCCATCTAC	7.3
GATGATTGTTCTCCCAGCTGATGAATTAACGGAATCGAGTAAACAAATTTTCCTAATCTTTCTGTTCAAGCGCCATCTAC	0.197
GATGATTGTTCTCCCAGCTGATGAATTCACCTAATCGAGTAAACAAATTTTCCTAATCTTTCTGTTCAAGCGCCATCTAC	0.274
GATGATTGTTCTCCCAGCTGATGAATTAGGCATCTCGAGTAAACAAATTTTCCTAATCTTTCTGTTCAAGCGCCATCTAC	6.82
GATGATTGTTCTCCCAGCTGATGAATTCATGGTATCGAGTAAACAAATTTTCCTAATCTTTCTGTTCAAGCGCCATCTAC	0.752
GATGATTGTTCTCCCAGCTGATGAATTATCTACATCGAGTAAACAAATTTTCCTAATCTTTCTGTTCAAGCGCCATCTAC	0.49
GATGATTGTTCTCCCAGCTGATGAATTGGTTGGGTCGAGTAAACAAATTTTCCTAATCTTTCTGTTCAAGCGCCATCTAC	2.43
GATGATTGTTCTCCCAGCTGATGAATTTTCTGAGTCGAGTAAACAAATTTTCCTAATCTTTCTGTTCAAGCGCCATCTAC	0.252
GATGATTGTTCTCCCAGCTGATGAATTACACTAGTCGAGTAAACAAATTTTCCTAATCTTTCTGTTCAAGCGCCATCTAC	0.456
GATGATTGTTCTCCCAGCTGATGAATTACGAGTATCGAGTAAACAAATTTTCCTAATCTTTCTGTTCAAGCGCCATCTAC	0.782
GATGATTGTTCTCCCAGCTGATGAATTGAGCTCGTCGAGTAAACAAATTTTCCTAATCTTTCTGTTCAAGCGCCATCTAC	0.509
GATGATTGTTCTCCCAGCTGATGAATTATTGACTTCGAGTAAACAAATTTTCCTAATCTTTCTGTTCAAGCGCCATCTAC	1.58
GATGATTGTTCTCCCAGCTGATGAATTCGCTTGCTCGAGTAAACAAATTTTCCTAATCTTTCTGTTCAAGCGCCATCTAC	1.87
GATGATTGTTCTCCCAGCTGATGAATTCTACGGATCGAGTAAACAAATTTTCCTAATCTTTCTGTTCAAGCGCCATCTAC	0.204
GATGATTGTTCTCCCAGCTGATGAATTCAACCTTTCGAGTAAACAAATTTTCCTAATCTTTCTGTTCAAGCGCCATCTAC	0.315
GATGATTGTTCTCCCAGCTGATGAATTGCATCCTTCGAGTAAACAAATTTTCCTAATCTTTCTGTTCAAGCGCCATCTAC	5.53
GATGATTGTTCTCCCAGCTGATGAATTTTGGCAATCGAGTAAACAAATTTTCCTAATCTTTCTGTTCAAGCGCCATCTAC	2.45
GATGATTGTTCTCCCAGCTGATGAATTGGTAATCTCGAGTAAACAAATTTTCCTAATCTTTCTGTTCAAGCGCCATCTAC	0.758
GATGATTGTTCTCCCAGCTGATGAATTACGTAACTCGAGTAAACAAATTTTCCTAATCTTTCTGTTCAAGCGCCATCTAC	1.38
GATGATTGTTCTCCCAGCTGATGAATTTCTAGGTTCGAGTAAACAAATTTTCCTAATCTTTCTGTTCAAGCGCCATCTAC	0.257
GATGATTGTTCTCCCAGCTGATGAATTTCCATTATCGAGTAAACAAATTTTCCTAATCTTTCTGTTCAAGCGCCATCTAC	0.461

Sequence	binding signal (RPM ratio (pull-down/input))
GATGATTGTTCTCCCAGCTGATGAATTATAGCCCTCGAGTAAACAAATTTTCCTAATCTTTCTGTTCAAGCGCCATCTAC	0.551
GATGATTGTTCTCCCAGCTGATGAATTACAAGCATCGAGTAAACAAATTTTCCTAATCTTTCTGTTCAAGCGCCATCTAC	1.16
GATGATTGTTCTCCCAGCTGATGAATTGTAAAGGTCGAGTAAACAAATTTTCCTAATCTTTCTGTTCAAGCGCCATCTAC	0.258
GATGATTGTTCTCCCAGCTGATGAATTCTGTCACTCGAGTAAACAAATTTTCCTAATCTTTCTGTTCAAGCGCCATCTAC	3.22
GATGATTGTTCTCCCAGCTGATGAATTCGTCTCCTCGAGTAAACAAATTTTCCTAATCTTTCTGTTCAAGCGCCATCTAC	0.471
GATGATTGTTCTCCCAGCTGATGAATTGGGATGCTCGAGTAAACAAATTTTCCTAATCTTTCTGTTCAAGCGCCATCTAC	0.866
GATGATTGTTCTCCCAGCTGATGAATTGAGGGACTCGAGTAAACAAATTTTCCTAATCTTTCTGTTCAAGCGCCATCTAC	0.384
GATGATTGTTCTCCCAGCTGATGAATTGCCTCATTCGAGTAAACAAATTTTCCTAATCTTTCTGTTCAAGCGCCATCTAC	0.981
GATGATTGTTCTCCCAGCTGATGAATTGACGAAATCGAGTAAACAAATTTTCCTAATCTTTCTGTTCAAGCGCCATCTAC	0.356
GATGATTGTTCTCCCAGCTGATGAATTACTCAACTCGAGTAAACAAATTTTCCTAATCTTTCTGTTCAAGCGCCATCTAC	0.336
GATGATTGTTCTCCCAGCTGATGAATTCAGGTGCTCGAGTAAACAAATTTTCCTAATCTTTCTGTTCAAGCGCCATCTAC	0.442
GATGATTGTTCTCCCAGCTGATGAATTGGGTGAATCGAGTAAACAAATTTTCCTAATCTTTCTGTTCAAGCGCCATCTAC	0.321
GATGATTGTTCTCCCAGCTGATGAATTCCCCGCTTCGAGTAAACAAATTTTCCTAATCTTTCTGTTCAAGCGCCATCTAC	0.281
GATGATTGTTCTCCCAGCTGATGAATTCGGATAATCGAGTAAACAAATTTTCCTAATCTTTCTGTTCAAGCGCCATCTAC	0.272
GATGATTGTTCTCCCAGCTGATGAATTGATTGTATCGAGTAAACAAATTTTCCTAATCTTTCTGTTCAAGCGCCATCTAC	2.11
GATGATTGTTCTCCCAGCTGATGAATTGTAATGTTCGAGTAAACAAATTTTCCTAATCTTTCTGTTCAAGCGCCATCTAC	1.55
GATGATTGTTCTCCCAGCTGATGAATTGGCTCCGTCGAGTAAACAAATTTTCCTAATCTTTCTGTTCAAGCGCCATCTAC	0.231
GATGATTGTTCTCCCAGCTGATGAATTAGATTGCTCGAGTAAACAAATTTTCCTAATCTTTCTGTTCAAGCGCCATCTAC	1.88
GATGATTGTTCTCCCAGCTGATGAATTGTATATATCGAGTAAACAAATTTTCCTAATCTTTCTGTTCAAGCGCCATCTAC	3.21
GATGATTGTTCTCCCAGCTGATGAATTCATCCTTTCGAGTAAACAAATTTTCCTAATCTTTCTGTTCAAGCGCCATCTAC	0.37
GATGATTGTTCTCCCAGCTGATGAATTATGCTTATCGAGTAAACAAATTTTCCTAATCTTTCTGTTCAAGCGCCATCTAC	4.84

Sequence	binding signal (RPM ratio (pull-down/input))
GATGATTGTTCTCCCAGCTGATGAATTCAACCCCTCGAGTAAACAAATTTTCCTAATCTTTCTGTTCAAGCGCCATCTAC	0.287
GATGATTGTTCTCCCAGCTGATGAATTTTCCATATCGAGTAAACAAATTTTCCTAATCTTTCTGTTCAAGCGCCATCTAC	0.304
GATGATTGTTCTCCCAGCTGATGAATTATTATACTCGAGTAAACAAATTTTCCTAATCTTTCTGTTCAAGCGCCATCTAC	0.575
GATGATTGTTCTCCCAGCTGATGAATTTGTGTGATCGAGTAAACAAATTTTCCTAATCTTTCTGTTCAAGCGCCATCTAC	3.4
GATGATTGTTCTCCCAGCTGATGAATTGCTCGTATCGAGTAAACAAATTTTCCTAATCTTTCTGTTCAAGCGCCATCTAC	0.705
GATGATTGTTCTCCCAGCTGATGAATTATCGCATTCGAGTAAACAAATTTTCCTAATCTTTCTGTTCAAGCGCCATCTAC	6.64
GATGATTGTTCTCCCAGCTGATGAATTGTTAATTTCGAGTAAACAAATTTTCCTAATCTTTCTGTTCAAGCGCCATCTAC	0.632
GATGATTGTTCTCCCAGCTGATGAATTACGGTCCTCGAGTAAACAAATTTTCCTAATCTTTCTGTTCAAGCGCCATCTAC	0.477
GATGATTGTTCTCCCAGCTGATGAATTGGTCGATTCGAGTAAACAAATTTTCCTAATCTTTCTGTTCAAGCGCCATCTAC	0.35
GATGATTGTTCTCCCAGCTGATGAATTTGCCGACTCGAGTAAACAAATTTTCCTAATCTTTCTGTTCAAGCGCCATCTAC	0.401
GATGATTGTTCTCCCAGCTGATGAATTAGGCCGCTCGAGTAAACAAATTTTCCTAATCTTTCTGTTCAAGCGCCATCTAC	1.23
GATGATTGTTCTCCCAGCTGATGAATTAAGTTGATCGAGTAAACAAATTTTCCTAATCTTTCTGTTCAAGCGCCATCTAC	2.52
GATGATTGTTCTCCCAGCTGATGAATTTGAGGACTCGAGTAAACAAATTTTCCTAATCTTTCTGTTCAAGCGCCATCTAC	0.446
GATGATTGTTCTCCCAGCTGATGAATTTGCGATTTCGAGTAAACAAATTTTCCTAATCTTTCTGTTCAAGCGCCATCTAC	1.58
GATGATTGTTCTCCCAGCTGATGAATTCTAATGGTCGAGTAAACAAATTTTCCTAATCTTTCTGTTCAAGCGCCATCTAC	0.513
GATGATTGTTCTCCCAGCTGATGAATTCTGTTGGTCGAGTAAACAAATTTTCCTAATCTTTCTGTTCAAGCGCCATCTAC	5.56
GATGATTGTTCTCCCAGCTGATGAATTTCAATATTCGAGTAAACAAATTTTCCTAATCTTTCTGTTCAAGCGCCATCTAC	0.823
GATGATTGTTCTCCCAGCTGATGAATTCGGTCCCTCGAGTAAACAAATTTTCCTAATCTTTCTGTTCAAGCGCCATCTAC	0.386
GATGATTGTTCTCCCAGCTGATGAATTCGGCACTTCGAGTAAACAAATTTTCCTAATCTTTCTGTTCAAGCGCCATCTAC	0.811
GATGATTGTTCTCCCAGCTGATGAATTGTCCGCCTCGAGTAAACAAATTTTCCTAATCTTTCTGTTCAAGCGCCATCTAC	0.568
GATGATTGTTCTCCCAGCTGATGAATTCGAGGTCTCGAGTAAACAAATTTTCCTAATCTTTCTGTTCAAGCGCCATCTAC	0.534
